Results: the supplement of paper PMC4604168 (melanoma cell lines)
This is one part of the list. Single values are uncertain, as repeats are few or missing.

What was measured:
Assay in all cases: cell count relative to DMSO control; melanoma cells; higher = more viable cells
Details in all cases: library dose: low library concentration; 72 h
COLO792 = tested on: COLO792
COLO800 = tested on: COLO800
COLO829 = tested on: COLO829
G361 = tested on: G361
IPC-298 = tested on: IPC-298
IST-MEL1 = tested on: IST-MEL1
LB2518-MEL = tested on: LB2518-MEL
LOXIMVI = tested on: LOXIMVI
MEL-HO = tested on: MEL-HO
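Further: cell number obtained by counting DAPI-stained nuclei in high-throughput microscope images with image analysis software, screen run in 1,536-well plates.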

Row | Compound | cell count (COLO792) [%] | cell count (COLO800) [%] | cell count (COLO829) [%] | cell count (G361) [%] | cell count (IPC-298) [%] | cell count (IST-MEL1) [%] | cell count (LB2518-MEL) [%] | cell count (LOXIMVI) [%] | cell count (MEL-HO) [%]
1 | O=c1[nH]nc(Sc2ncc([N+](=O)[O-])s2)n1-c1ccc2c(c1)OCCO2 + Oc1cc(-c2nc(-c3ccccc3)[nH]c2-c2ccncc2)ccc1Cl [L779450] (first compound 0.2 µM, partner dose 0.2 µM) | 118 | 104 | 133 | 104 | 95.5 | 95.5 | 77.4 | 109 | 101
2 | O=C(Nc1cccc(Cl)c1)Nc1ncc(CCNc2ncnc3ccsc23)s1 + COc1cc2c(Oc3ccc4[nH]c(C)cc4c3F)ncnc2cc1OCCCN1CCCC1 [cediranib] (first compound 0.0008 µM, partner dose 0.4 µM) | 80.8 | 82.5 | 116 | 105 | 105 | 93.3 | 101 | 94.5 | 106
3 | O=C(Nc1cccc(Cl)c1)Nc1ncc(CCNc2ncnc3ccsc23)s1 + CN(NC(=O)CC(=O)NN(C)C(=S)c1ccccc1)C(=S)c1ccccc1 [STA4783] (first compound 0.0008 µM, partner dose 0.006 µM) | 65.5 | 38.9 | 65.5 | 83 | 90.2 | 76.5 |  | 90.2 | 88.5
4 | CC1(C)NC(=O)N(c2ccc([N+](=O)[O-])c(C(F)(F)F)c2)C1=O [nilutamide] + O=C(Nc1cccc(Cl)c1)Nc1ncc(CCNc2ncnc3ccsc23)s1 [SNS314] (first compound 1 µM, partner dose 0.0008 µM) | 104 | 93.5 | 110 | 96.8 | 102 | 97.9 | 90.5 | 142 | 92.4
5 | O=c1[nH]nc(Sc2ncc([N+](=O)[O-])s2)n1-c1ccc2c(c1)OCCO2 + O=C(O)c1ccc(-c2c[nH]c3ncc(-c4ccccc4)cc23)cc1C1CCCC1 [GSK650394] (first compound 0.2 µM, partner dose 0.16 µM) | 104 | 89.2 | 106 | 97.7 | 101 | 90.6 | 125 | 70.8 | 92.1
6 | O=c1[nH]nc(Sc2ncc([N+](=O)[O-])s2)n1-c1ccc2c(c1)OCCO2 + NC(=O)Nc1cc(-c2cccc(F)c2)sc1C(=O)N[C@H]1CCCNC1 [AZD7762] (first compound 0.2 µM, partner dose 0.02 µM) | 95 | 76.5 | 98.6 | 119 | 109 | 106 | 142 | 103 | 98.6
7 | O=c1[nH]nc(Sc2ncc([N+](=O)[O-])s2)n1-c1ccc2c(c1)OCCO2 + O=C(Nc1cccc(Cl)c1)Nc1ncc(CCNc2ncnc3ccsc23)s1 [SNS314] (first compound 0.2 µM, partner dose 0.0008 µM) | 93.8 | 103 | 73.4 | 102 | 104 | 97.1 | 101 | 82 | 108
8 | O=c1[nH]nc(Sc2ncc([N+](=O)[O-])s2)n1-c1ccc2c(c1)OCCO2 + O=c1cc(-c2cccc3c2Sc2ccccc2S3)oc(N2CCOCC2)c1 [KU55933] (first compound 0.2 µM, partner dose 1 µM) | 108 | 138 | 96.7 | 92.2 | 105 | 101 | 131 | 109 | 95.3
9 | O=C(O)c1ccc(-c2c[nH]c3ncc(-c4ccccc4)cc23)cc1C1CCCC1 + NCC(=O)Nc1ccc(-n2nc(C(F)(F)F)cc2-c2ccc3c(ccc4ccccc43)c2)cc1 [OSU03012] (first compound 0.16 µM, partner dose 1 µM) | 105 | 81.5 | 103 | 95.8 | 95.7 | 86.6 | 104 | 95 | 93.1
10 | O=c1[nH]nc(Sc2ncc([N+](=O)[O-])s2)n1-c1ccc2c(c1)OCCO2 + N#Cc1c(O)c2c(-c3ccc(-c4ccccc4O)cc3)csc2[nH]c1=O [A769662] (first compound 0.2 µM, partner dose 2 µM) | 117 | 110 | 112 | 129 | 107 | 106 | 99.4 | 110 | 102
11 | C[C@@H]1CCN(C(=O)CC#N)C[C@@H]1N(C)c1ncnc2[nH]ccc12 + NCC(=O)Nc1ccc(-n2nc(C(F)(F)F)cc2-c2ccc3c(ccc4ccccc43)c2)cc1 [OSU03012] (first compound 1 µM, partner dose 1 µM) | 111 | 78.4 | 98.9 | 101 | 78 | 83 | 106 | 92.2 | 90.8
